Some of the results follow. Repeats are few or missing, and single values can be far off.
The compounds below were run on COLO829 (assay: cell count relative to DMSO control; melanoma cells; higher = more viable cells). Conditions: library dose: standard library concentration; 72 h.
Compound `Cn1nnc2c(C(N)=O)ncn2c1=O` [temozolomide] + O=C(O)c1ccc(-c2c[nH]c3ncc(-c4ccccc4)cc23)cc1C1CCCC1 [GSK650394] (first compound 10 µM, partner dose 0.8 µM) has a cell count of 80.9%.
In the case of `Cn1nnc2c(C(N)=O)ncn2c1=O` [temozolomide] + CCN(CC)CCCCNc1ncc2cc(-c3cc(OC)cc(OC)c3)c(NC(=O)NC(C)(C)C)nc2n1 [PD173074] (first compound 10 µM, partner dose 0.5 µM), the cell count is reported as 119%.
In the case of `O=C(O)[C@@H]1[O][Sb](=[O])([O][Sb]2(=[O])[O][C@H]([C@H](O)CO)[C@H](O)[C@H](C(=O)O)[O]2)[O][C@H]([C@H](O)CO)[C@@H]1O` (stereo not given in full) [stibogluconate] + OCc1c[nH]c2ccccc12 [Indole-3-carbinol] (first compound 10 µM, partner dose 4 µM), the cell count is reported as 91.1%.
Work on `Cn1nnc2c(C(N)=O)ncn2c1=O` [temozolomide] + O=C(Nc1cccc(Cl)c1)Nc1ncc(CCNc2ncnc3ccsc23)s1 [SNS314] (first compound 10 µM, partner dose 0.004 µM) yielded a cell count of 78.7%.
Work on `O=C(Nc1cc(C(F)(F)F)cc(C(F)(F)F)c1)c1cc(Cl)ccc1O` + Cc1cc(N2CCOCC2)cc2[nH]c(-c3c(NC[C@@H](O)c4cccc(Cl)c4)cc[nH]c3=O)nc12 [BMS536924] (first compound 0.08 µM, partner dose 1 µM) yielded a cell count of 112%.
`O=C(O)c1ccc2c(c1)nc(Nc1cccc(Cl)c1)c1ccncc12` + Cn1cncc1[C@@](N)(c1ccc(Cl)cc1)c1ccc2c(c1)c(-c1cccc(Cl)c1)cc(=O)n2C [tipifarnib] (first compound 2 µM, partner dose 0.05 µM) gave a cell count of 60.5%.
`Cc1cc(N2CCOCC2)cc2[nH]c(-c3c(NC[C@@H](O)c4cccc(Cl)c4)cc[nH]c3=O)nc12` + COc1cc2c(Oc3ccc4[nH]c(C)cc4c3F)ncnc2cc1OCCCN1CCCC1 [cediranib] (first compound 1 µM, partner dose 2 µM) was tested, and the cell count was 97.7%.
With `O=C(Nc1cc(C(F)(F)F)cc(C(F)(F)F)c1)c1cc(Cl)ccc1O` + Cc1ccc(Nc2nccc(N(C)c3ccc4c(C)n(C)nc4c3)n2)cc1S(N)(=O)=O [Pazopanib] (first compound 0.08 µM, partner dose 2 µM) the cell count was 116%.
Work on `O=C(O)c1ccc2c(c1)nc(Nc1cccc(Cl)c1)c1ccncc12` + O=C(CCCCCCC(=O)Nc1ccccc1)NO [vorinostat] (first compound 2 µM, partner dose 0.4 µM) yielded a cell count of 53.1%.
Work on `Cn1nnc2c(C(N)=O)ncn2c1=O` [temozolomide] + NC(=O)Nc1cc(-c2cccc(F)c2)sc1C(=O)N[C@H]1CCCNC1 [AZD7762] (first compound 10 µM, partner dose 0.1 µM) yielded a cell count of 80%.
Work on `O=C(Nc1cc(C(F)(F)F)cc(C(F)(F)F)c1)c1cc(Cl)ccc1O` + NC1(c2ccc(-c3nc4ccn5c(=O)[nH]nc5c4cc3-c3ccccc3)cc2)CCC1 [MK2206] (first compound 0.08 µM, partner dose 2 µM) yielded a cell count of 76.2%.
Compound `O=C(O)[C@@H]1[O][Sb](=[O])([O][Sb]2(=[O])[O][C@H]([C@H](O)CO)[C@H](O)[C@H](C(=O)O)[O]2)[O][C@H]([C@H](O)CO)[C@@H]1O` (stereo not given in full) [stibogluconate] + Nc1cccc2c1CN(C1CCC(=O)NC1=O)C2=O [lenalidomide] (first compound 10 µM, partner dose 5 µM) has a cell count of 96%.
`O=C(O)[C@@H]1[O][Sb](=[O])([O][Sb]2(=[O])[O][C@H]([C@H](O)CO)[C@H](O)[C@H](C(=O)O)[O]2)[O][C@H]([C@H](O)CO)[C@@H]1O` (stereo not given in full) [stibogluconate] + Nc1nc(F)nc2c1ncn2[C@@H]1O[C@H](CO)[C@@H](O)[C@@H]1O [fludarabine] (first compound 10 µM, partner dose 1 µM) gave a cell count of 109%.
`O=C(O)c1ccc2c(c1)nc(Nc1cccc(Cl)c1)c1ccncc12` + OCc1c[nH]c2ccccc12 [Indole-3-carbinol] (first compound 2 µM, partner dose 4 µM) was tested, and the cell count was 75.6%.
`Cn1nnc2c(C(N)=O)ncn2c1=O` [temozolomide] + Cn1cncc1[C@@](N)(c1ccc(Cl)cc1)c1ccc2c(c1)c(-c1cccc(Cl)c1)cc(=O)n2C [tipifarnib] (first compound 10 µM, partner dose 0.05 µM) gave a cell count of 90.2%.

Source: the supplement of paper PMC4604168 (melanoma cell lines)
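Further: cells treated in 1,536-well plates, then fixed and DAPI-stained, with nuclei counted from automated high-throughput microscope images.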
